# Laboratory results taken from the supplement of paper PMC11417369.
# The list shows a part of the results.
# Tested on: PfSIP2 AP2 domain 1 (GST-tagged)
# Assay: gcPBM binding intensity (ln(normalized median fluorescence intensity)); higher = stronger DNA binding
# Method in brief: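 An Agilent 4 × 180k array carrying primer-extended double-stranded 36-bp intergenic genomic probes and negative controls received GST-tagged P. falciparum DNA-binding domains expressed in E. coli, about 25 μg on average, for 1 h. The binding buffer contained 1× PBS, 1% milk, 0.2 mg/ml BSA, 0.5% salmon testes DNA and 0.03% Triton X-100. Binding intensity is the top Masliner-normalised natural-log median intensity across replicate spots of either probe orientation, read after Alexa488 anti-GST antibody staining and a 488 nm scan.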
row,Sequence,gcPBM binding intensity (ln)
1,TGTAAATTATAACGTGCACACATATTTAAAATGAAA [CACACA_site8915],10.6
2,ATATAGAAAATGCATACACACTTTATAAATATATTT [CACACA_site6553],7.08
3,AGATATTTATTGAGTGCATGTTATAAAGGGAAAAAA [TGCATGCA_site88],10.3
4,TTTTTTTTTTTTTTTTTTTTCACATGTGTGGAAAAA [GTGCAC_negctrl_site352],7.27
5,AATTTAAAATATATAGTACACACGTGAACACAAATA [CACACA_site416],6.95
6,TTAAAATATACATAAACACACACAAAACGTTTAAGA [CACACA_site8267],6.95
7,AGGATATATAAGTATACACACATATTTATATTTATA [CACACA_site6239],6.88
8,TAACAATAACTTTATACACACATAATATATATATAT [CACACA_site3543],8.97
9,TGTATTTATAATAAAACACACATTTTTAATGTGCTC [CACACA_site4908],6.66
10,CATATACTTCTGTGCACACGAATATTTTTCTTCTTC [CACACA_site1407],8.86
11,TGTTGTCCTAATTCTACACACAATGGTTTATTAAAA [CACACA_site2648],7.39
12,TTTTAACGTAAAACATTGATGATATAAAAAATAGGA [GTGCAC_negctrl_site540],7.3
13,TATACTCATATTTTTACACACATATTTTTTCATATA [CACACA_site5412],7
14,TTTGTGTTTATAAATTGTACAAAGGTGCAAGAAGAA [XGTACX_site2159],11.2
15,AAAAAAAAAAAAAACACACACACACCCATAAATATA [CACACA_site151],7.25
16,ACACAAATAAATATAACATATATATTATATTATATT [CACACA_negctrl_site710],7.25
17,TTTATATAAATTTTTTGTACACAAGTAAAAACGCGT [XGTACX_site2459],7.21
18,ATAAAATATATATATATAAAAATAAATACATAAATA [GTGCAC_negctrl_site157],7
19,CAAACAAACAGACACACACACACACCCAAAAATGAT [CACACA_site2430],7.15
20,TCAATATTAAATTATTGTACATGTATGTATATATAT [XGTACX_site3861],7.94
21,TTTTTTTTTTTTTTTTTACACACTTTATTCAAACAA [CACACA_site9360],7.05
22,AAAAAAAAAAATATATTAAAATAAAAAATATTAACA [GTGCAC_negctrl_site13],6.69
23,TACACCCACCCACATACACACACATACACATATATA [CACACA_site8503],7.48

row,Sequence,gcPBM binding intensity (ln)
1,CCACTTAAAATAAAAAGTACATACAGGTGTTATACA [XGTACX_site8124],7.14
2,AATAATGTTATAAATTGTACGTGTATTATTCATTAC [XGTACX_site894],7.04
3,TAATGAGGAAATACAGCACACGTTATTACACTTTTC [CACACA_site5399],6.83
4,AAATTGGTTCATCAATGTACATGTAAAATAAATCAA [XGTACX_site4795],7.04
5,TATATTTATCCATACAAGAAAAAAAAAAAAAAAATA [CACACA_negctrl_site1328],6.82
6,CAAATAAAAACAAAACGTACGAATAAATTATTGTTA [XGTACX_site5136],6.9
7,TATTTGATCTAAAGAGCATGCAAAAACGAACAAGAT [TGCATGCA_site136],7.57
8,ATATCGTTATTTTTATGTACTAAAATATTTAATTAT [XGTACX_site3516],7.09
9,CACATATAAATATTAACACACATAATGAATTATATA [CACACA_site2741],6.94
10,ATATATAAAAATTAGGTGCATTAAATTAAAATATAT,10.3
11,TTTAAATAAAATATTACACACTTAGAAAGATATATA [CACACA_site7684],6.8
12,TTTTTTTTTTATTGTACATGCAAAAAATTCCACACA [TGCATGCA_site279],8.18
13,TGTATATAATCGAGTGCACACACAAAAAAAAAGTGA [CACACA_site8417],10.4
14,AAAAAAAAAAAAAAAACACACACATATATATATATA [CACACA_site8571],9.54
15,TTCATGTCCTATTAATGTACTCTACACACATATAAG [XGTACX_site899],7.19
16,TTTATTTATTTTTGTTGTACACTTGTATATATTATT [XGTACX_site6486],7.2
17,ATTTTATATACACTTTGTACTTATTTTATTCTTCTT [XGTACX_site4200],7.05
18,ATATATATATATAATACACACTAAAGTAACATAATA [CACACA_site5580],8.56
19,TACGGGAAAGATAAGAAACACACGGAAAATTAGACG [CACACA_site1661],7.25
20,TTTTTTAATACATATGCATGTTCAAGTACGAAAAAA [TGCATGCA_site641],7.11
21,TATTAAACTTGACACACACACACACGCATATATAAA [CACACA_site6496],7.26
22,TACGCAACCAAAAGTTGTACTAATTTTTTTTTTTTG [XGTACX_site7432],6.9
